In PubChem BioAssay (NCI) one finds GI50 and TGI data, which are given here for three compounds.

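Five compound concentrations were applied to cells in 96-well plates for 48 hours; endpoints were derived by simple linear interpolation of the resulting dose-response curve. Abbreviation: GI50, concentration required for 50% inhibition of growth. TGI: total growth inhibition.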

This assay has as its system NCI-H322M lung. Nature of the assay: growth of human tumour cells (NCI), 48 h.

Consider `Brc1ccc(N/N=C/c2c[nH]c3ccc(Br)cc23)nc1`, for which the GI50 is 3.5 µM and the TGI is 15.4 µM.
As for `Cc1nc(Nc2ccccn2)sc1C(=O)CC(SCC(=O)Nc1ccc(Cl)cc1)c1ccccc1F` (stereo unspecified), the GI50 was 3.08 µM and the TGI turned out to be 21.4 µM.
In the same order, the values of `Cc1ccc(O)cc1Nc1nc(SCCN2CCOCC2)nc2c1cnn2CC(Cl)c1ccc(Br)cc1` (stereo unspecified) are 25.6 µM and 79.9 µM.
